Test results: PubChem BioAssay AID1345083 (National Center for Advancing Translational Sciences (NCATS), 2018)
Hit rate of the full screen: of about 94,000 compounds, about 6,200 (6.6%) were called active. The inconclusive results got no clear call from the source; some entries with a clear call stand among them for comparison. Calls follow the shape of the dose curve; as a rule, active = well fitted inhibition curve with a large enough effect; inconclusive = small, poorly fitted or top-dose-only effect; inactive = flat fitted curve, though single readings scatter. Potencies beside an inconclusive call are fits to weak or partial responses and may not hold up.

Assay: Cytotoxic Profiling in HEK 293 Cell Line of Diverse Libraries Using Quantitative High-Throughput Screening; also: nearly all actives have a fitted effect of over 60% in size
Conditions: HEK 293 viability, ATP luminescence (CellTiter-Glo), 48-72 h; activity change, negative = cytotoxicity: at 115 µM (top of the series) unless noted; series mostly up to 115 µM
In short: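 ATP-coupled CellTiter-Glo luminescence served as viability read-out, recorded 10 min after reagent addition at room temperature. HEK 293 cells, 250 cells/well, had been incubated with pintool-transferred compound for 48 or 72 hr at 37 degree Celsius.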
% is scaled to controls: 0 for no effect and ±100 for the full control effect; potency is read from the fitted curve at half-maximal effect; tags tell the direction and shape of the fitted curve.

Compound | Potency | activity change, negative = cytotoxicity
Cc1nn(C)c2nc(N3CCC(C#N)(c4ccccc4)CC3)sc12 | active: 28.2 µM | –
O=C(NC1CC1)c1ccc2nccn2c1 | – | inactive: -8.16% [at 230 µM]
O=C(NC1CCOCC1)C1CCCN(Cc2cccc(-c3ccc(F)cc3F)c2)C1 (centres undefined) | inconclusive: 35.5 µM [inhibitor, partial curve, poor fit] | –
CC(C)n1cccc1C(=O)N1CCC2(CC1)CC(c1ccccc1)CN2C (centres undefined) | inconclusive: 100 µM [inhibitor, single point] | –
CC(=O)N(C1CCOCC1)C1CCN(C(=O)c2ccc(C)s2)CC1 | – | inactive: -16.4%
CN1CCN(C(=O)c2cn3cc(-c4ccc(F)cc4)sc3n2)CC1 | inconclusive: 112 µM [inhibitor, partial curve, poor fit] | –
Cc1ccc(CC(=O)N2CCc3[nH]nc(C(=O)NCCCc4ccccc4)c3C2)cc1 | inconclusive: 56.2 µM [inhibitor, partial curve, poor fit] | –
CCCCOc1ccc(C(=O)N2CCC[C@H]2c2nc(-c3ccc(OC)cc3)no2)cc1 | active: 25.1 µM | –
O=C(NCc1nnc2cc(-c3nc(C4CC4)no3)ccn12)C1CCCCC1 | inconclusive: 89.1 µM [inhibitor, single point] | –
Cc1ccc(Nc2ccnc(N3CCC(NC(=O)c4ccccc4Cl)CC3)n2)cc1 | active: 44.7 µM | –
CCc1ccc(N2CC(c3noc(-c4cccc(OC)c4OC)n3)CC2=O)cc1 (centres undefined) | active: 79.4 µM | –
Cc1nn(-c2ccccc2)c2c1C(C1CC1)N(C1CN(C(=O)NC3CCCC3)C1)C2=O (centres undefined) | – | inactive: -2.48%
COCc1ccc(C(=O)N2CCC(c3[nH]ncc3-c3ccccc3)CC2)o1 | – | inactive: -3.41%
CCN1CCN(c2ncnc3c2CN(c2cccc(C)c2)C(=O)CN3C)CC1 | – | inactive: 1.61%
CN1c2cc(C(=O)NC3CCN(Cc4ccccc4)CC3)ccc2C(=O)N2CCCCC21 (centres undefined) | inconclusive: 44.7 µM [inhibitor, partial curve, poor fit] | –
O=C(Cc1c[nH]c2ccccc12)N1CCCN(c2cc(-c3ccc(Cl)cc3)[nH]n2)CC1 | active: 44.7 µM | –
CC(C)(C)CCN1CC(Oc2cccc(C(=O)N3CCCC3)c2)C1 | – | inactive: -4.23%
COc1ccccc1-c1cc(NCc2cnccn2)c2onc(C)c2n1 | – | inactive: -11% [at 172 µM]
CSc1cccc(NC(=O)CN2C(=O)NC3(CCC(C)CC3)C2=O)c1 (centres undefined) | inconclusive: 50.1 µM [inhibitor, partial curve, poor fit] | –
Cc1ccccc1-c1ccnc(-c2nnc(C)n2Cc2ccncc2)c1 | inconclusive: 126 µM [inhibitor, single point] | –
CCOCCCNC(=O)C1CCCN1Cc1cccc(-c2ccc(C)c(Cl)c2)c1 (centres undefined) | inconclusive: 35.5 µM [inhibitor, full curve, poor fit] | –
CCOc1ccccc1NC(=O)N1CCCCCCNC(=O)[C@@H]2CCCC[C@@H]21 | inconclusive: 50.1 µM [inhibitor, partial curve, poor fit] | –

Compound | Potency | activity change, negative = cytotoxicity
Cc1ccc(NC(=O)N2CC(C(=O)N(C)C)C3(CCOCC3)C2)cc1Cl (centres undefined) | – | inactive: 1.34%
Cc1cc(C(=O)N2CCCCC2c2noc(COc3ccc(F)cc3)n2)n[nH]1 (centres undefined) | inconclusive: 79.4 µM [inhibitor, partial curve, poor fit] | –
Cc1nn2c(c1-c1ccccc1Oc1ccccc1)N(C(=O)Cc1ccc(O)cc1)CCC2 | active: 89.1 µM | –
COc1ccc(-c2noc(CC3CCN(C(=O)c4ccc(OC)cc4OC)CC3)n2)cc1 | inconclusive: 11.2 µM [inhibitor, partial curve, poor fit] | –
Cc1csc(NC(=O)c2nc3c(o2)CCN(Cc2cc(F)ccc2F)CC3)n1 | inconclusive: 89.1 µM [inhibitor, partial curve] | –
CN1CCC(N2C[C@@H]3C[C@H]2C(=O)N(Cc2ccc(OC(F)(F)F)cc2)c2ccccc2O3)CC1 | inconclusive: 50.1 µM [inhibitor, partial curve, poor fit] | –
Cc1ccc(NC(=O)Nc2ccc(C)n(CC(=O)Nc3ccccc3)c2=O)cc1 | – | inactive: 7.93%
CC(C)CCNC(=O)c1cnc2n1CCN(Cc1ccc(C(C)C)cc1)CC2 | active: 56.2 µM | –
Cc1ccc(NC2=N[C@H]3[C@@H](O)[C@H](O)C[C@H](C(=O)N4CCC(C(N)=O)CC4)[C@H]3S2)cc1 | – | inactive: -4.2% [at 172 µM]
COc1ccccc1C(=O)NC1CCN(c2ccc3nnc(C4CC4)n3n2)CC1 | inconclusive: 89.1 µM [inhibitor, single point] | –
O=C(NCCc1ccccn1)c1ccc(OC2CCNCC2)nc1 | inconclusive: 63.1 µM [inhibitor, partial curve, poor fit] | –
O=C(Nc1ccc2ncnc(N3CCCCC3)c2c1)c1ccsc1 | active: 39.8 µM | –
CCN(CC)Cc1nc(C2(O)CCN(CCC(C)C)CC2)cs1 | inconclusive: 70.8 µM [inhibitor, full curve, poor fit] | –
Cc1ncccc1C(=O)N1C[C@@H](Oc2cccnc2)C[C@H]1C(=O)N1CCCC1 | – | inactive: -13.7%
O=C(NCc1ccccc1F)C1CCN(C(=O)c2ncn3c2COC(c2ccc(Cl)cc2)C3)CC1 (centres undefined) | – | inactive: -2.41%
Cc1ccc([S+](=O)([O-])NCCNC(=O)c2cccc(-c3ccsc3)c2)cc1 | inconclusive: 56.2 µM [inhibitor, partial curve, poor fit] | –
COc1cc(C)ccc1S(=O)(=O)N1CCCCC1CN1CCOCC1 (centres undefined) | inconclusive: 89.1 µM [inhibitor, single point] | –
CCc1cc(=O)n(CC(=O)Nc2ccc(Br)cc2F)c(N2CCOCC2)n1 | inconclusive: 79.4 µM [inhibitor, partial curve, poor fit] | –
CC(=O)c1ccc(NC(=O)Cn2c(-c3ccc(F)cc3)nc(C)cc2=O)cc1 | inconclusive: 44.7 µM [inhibitor, partial curve, poor fit] | –
CC[C@H]1CN(C(=O)N2CCOCC2)CC[C@H]1CC(=O)N1CCOCC1 | – | inactive: 3.49% [at 172 µM]
CCC(=O)N1CCN(c2nc3c(s2)CC(C(=O)Nc2ccc(C(C)C)cc2)CC3)CC1 (centres undefined) | active: 35.5 µM | –
O=C(Nc1cc(F)ccc1F)N1CC(c2noc(-c3ccccc3)n2)C1 | inconclusive: 31.6 µM [inhibitor, full curve, poor fit] | –
